The results in this text go back to the supplement of paper PMC9446081.

The whole screen tested about 39,000 compounds, of which about 220 (0.56%) showed activity. The list shows a part of the results.
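Also: static incubation at 37 °C against the wild-type strain, values averaged over two biological replicates.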

In this assay the test system is Escherichia coli K-12 BW25113. Kind of assay: relative growth (OD600 normalised to plate interquartile mean) (fraction); higher = less growth inhibition, active = 0.2 or less. The conditions noted are these: 50 µM; LB; incubation time: overnight (16-24 h).
For `C[C@@H]1CN([C@@H](C)CO)S(=O)(=O)c2ccc(C#Cc3ccccc3F)cc2O[C@@H]1CN(C)C(=O)Cc1cccnc1`, the relative growth is inactive: 1.05.

For `COc1ccc(NC(=O)N(C)C[C@H]2Oc3ccc(NC(=O)Cn4cnnn4)cc3C(=O)N([C@@H](C)CO)C[C@H]2C)cc1`, the relative growth was inactive: 1.01. With `COCC(=O)N(C)C[C@@H]1Oc2cc(-c3ccc(OC)cc3)ccc2S(=O)(=O)N([C@H](C)CO)C[C@@H]1C`, the relative growth is inactive: 0.922. As for `C[C@@H]1CN([C@@H](C)CO)C(=O)c2cc(NC(=O)NC3CCCCC3)ccc2O[C@@H](C)CCCCO[C@@H]1CN(C)Cc1ccc2c(c1)OCO2`, the figure is inactive: 0.998; as for `COc1ccc([Si](C)(C)[C@@H]2[C@@H](CC(=O)N(CCO)Cc3ccccc3)O[C@]3(C(=O)N(Cc4ccc(N5C(=O)c6cccc7cccc5c67)cc4)c4ccccc43)[C@H]2C)cc1`, inactive: 1.02; as for `CNC[C@@H]1OCCCC[C@@H](C)Oc2ccc(NC(=O)c3ccncc3)cc2C(=O)N([C@H](C)CO)C[C@H]1C`, inactive: 1.01.

Take `C[C@@H]1CN([C@@H](C)CO)C(=O)c2cc(C#Cc3ccncc3)cnc2O[C@H]1CN(C)C(=O)c1ccccc1F`: the relative growth is inactive: 0.994. The result for `C[C@@H]1CN([C@@H](C)CO)C(=O)c2cc(C#Cc3ccccc3)cnc2O[C@@H]1CN(C)S(=O)(=O)c1ccccc1F` reads inactive: 1.02; that for `Cc1noc(C)c1S(=O)(=O)Nc1ccc2c(c1)CC(=O)N([C@H](C)CO)C[C@@H](C)[C@@H](CN(C)S(=O)(=O)c1ccc(Cl)cc1)O2`, inactive: 0.989. The result for `Cc1cc(C(=O)O)sc1[C@@H](N)C(=O)O` reads inactive: 0.967. The result for `O=C(CCCCCNC(=O)OCc1ccc(CO[C@@H]2C[C@H](C3CCCCC3)C=C(C(=O)N3CCN(Cc4ccccc4)CC3)O2)cc1)NO` reads inactive: 0.968; that for `C[C@@H]1CN([C@@H](C)CO)S(=O)(=O)c2ccc(-c3ccccc3F)cc2O[C@H]1CN(C)Cc1cncnc1`, inactive: 0.984. Turning to `CN(C)CCCNC(=O)C[C@@H]1CC[C@H]2[C@@H](COC[C@@H](O)CN2S(=O)(=O)c2ccc(F)cc2)O1`, the relative growth is inactive: 1.03. The result for `Cc1cnc2c(c1N1CCOCC1)c(=O)n(C)c(=O)n2C` reads inactive: 1.02; that for `COc1ccc(NC(=O)Nc2ccc3c(c2)C(=O)N([C@H](C)CO)C[C@@H](C)[C@@H](CN(C)Cc2ccc(C(F)(F)F)cc2)O3)cc1`, inactive: 0.929; that for `O=C(C[C@@H]1C[C@H]2c3cc(NC(=O)NC4CCCC4)ccc3O[C@H]2[C@@H](CO)O1)NCc1ccc2c(c1)OCO2`, inactive: 1.02. As for `Cc1noc(C)c1NC(=O)N(C)C[C@@H]1Oc2c(NC(=O)NC(C)C)cccc2C(=O)N([C@@H](C)CO)C[C@@H]1C`, the figure is inactive: 0.995; as for `CO[C@@H]1CN(C)C(=O)c2ccc(NC(=O)Nc3ccccc3)cc2OC[C@@H](C)N(C(=O)CN(C)C)C[C@@H]1C`, inactive: 1.01; as for `CCNC(=O)c1cc2c(c(-c3cccc(-c4cccc(F)c4)c3)n1)[C@H](CCO)N([S@@](=O)C(C)(C)C)C2`, inactive: 0.997. The result for `COc1ccc2c3c(n(c2c1)C)[C@H](CO)N(C[C@]13CCN(CC1)C(=O)c1cccnc1)C(=O)c1cccnc1` reads inactive: 1.02. With `C[C@@H](O)[C@H](N)C(=O)O`, the relative growth was inactive: 0.997. As to `C[C@H]1CN([C@@H](C)CO)S(=O)(=O)c2ccc(C#Cc3cccc(F)c3)cc2O[C@H]1CN(C)S(=O)(=O)c1cn(C)cn1`, the relative growth was inactive: 0.979. The result for `CNCCC=C1c2ccccc2CCc2ccccc21.Cl` reads inactive: 1.07. The result for `c1ccc2[nH]c(-c3ccncc3)nc2c1` reads inactive: 1.02; that for `Cn1cc(CN2CCC3(CC2)CNC(=O)CO3)cn1`, inactive: 1.04; that for `Cc1noc(C)c1NC(=O)Nc1ccc2c(c1)CC(=O)N([C@@H](C)CO)C[C@@H](C)[C@@H](CN(C)S(=O)(=O)c1c(C)noc1C)O2`, inactive: 0.983. The result for `CO[C@H]1C[C@@H]2CC[C@@H](C)[C@@](O)(O2)C(=O)C(=O)N2CCCC[C@H]2C(=O)O[C@H]([C@H](C)C[C@@H]2CC[C@@H](OP(C)(C)=O)[C@H](OC)C2)CC(=O)[C@H](C)/C=C(\C)[C@@H](O)[C@@H](OC)C(=O)[C@H](C)C[C@H](C)/C=C/C=C\C=C\1C` reads inactive: 0.837; that for `C[C@@H]1CN([C@@H](C)CO)C(=O)c2cc(NC(=O)Cc3cn(C)c4ccccc34)ccc2O[C@@H]1CN(C)C(=O)Nc1ccc(C(F)(F)F)cc1`, inactive: 0.987. For `O=C(O)c1cc2c([nH]c1=O)CCCC2`, the relative growth was inactive: 0.914. The result for `Cl.NCCCC(N)(C(=O)O)C(F)F.O` (centres undefined) reads inactive: 0.867; that for `COCC#Cc1ccc2c(c1)O[C@H](CN(C)Cc1ccc(F)cc1)[C@@H](C)CN([C@@H](C)CO)S2(=O)=O`, inactive: 1; that for `C[C@@H]1CCCCO[C@@H](CN(C)C(=O)Nc2ccc3c(c2)OCO3)[C@@H](C)CN([C@H](C)CO)C(=O)c2cc(NC(=O)c3ccncc3)ccc2O1`, inactive: 0.982. Consider `CN(C)CCCNC(=O)C[C@@H]1CC[C@@H]2[C@@H](COc3ccc(NC(=O)c4ccccc4F)cc3C(=O)N2C)O1`, for which the relative growth was inactive: 0.979. As for `C[C@H]1CN([C@@H](C)CO)C(=O)c2cc(NS(C)(=O)=O)ccc2O[C@@H]1CN(C)S(=O)(=O)c1ccc(Cl)cc1`, the figure is inactive: 0.995.

As for `COCC#Cc1ccc([C@H]2[C@@H](CO)N3C(=O)CN(C(=O)c4ccncc4)C[C@@H]23)cc1`, the relative growth is inactive: 0.993. Regarding `COc1ccc(NC(=O)Nc2ccc3c(c2)C(=O)N([C@@H](C)CO)C[C@H](C)[C@@H](CN(C)C(=O)CCC(F)(F)F)OCCCC[C@H](C)O3)cc1`, the relative growth was inactive: 1.07.

For `Cn1cnc(S(=O)(=O)N[C@@H]2CC[C@@H](CC(=O)NCC3CC3)O[C@H]2CO)c1`, the relative growth was inactive: 0.937. As to `C[C@@H]1CN([C@@H](C)CO)C(=O)Cc2cc(NC(=O)CCC(F)(F)F)ccc2O[C@@H]1CN(C)S(=O)(=O)c1cccs1`, the relative growth is inactive: 0.985.

For the molecule `CN1CCN(C(=O)C[C@H]2CC[C@H]3[C@H](COc4ccc(NC(=O)C5CCCCC5)cc4C(=O)N3C)O2)CC1`, the relative growth is inactive: 1.02. As to `CC(C)(C)c1cc(CCC(=O)OCC(COC(=O)CCc2cc(C(C)(C)C)c(O)c(C(C)(C)C)c2)(COC(=O)CCc2cc(C(C)(C)C)c(O)c(C(C)(C)C)c2)COC(=O)CCc2cc(C(C)(C)C)c(O)c(C(C)(C)C)c2)cc(C(C)(C)C)c1O`, the relative growth is inactive: 0.993. The result for `COc1ccc(S(=O)(=O)N(C)C[C@@H]2Oc3ncc(-c4ccncc4)cc3C(=O)N([C@H](C)CO)C[C@@H]2C)cc1` reads inactive: 0.998; that for `C[C@@H]1CCCCO[C@H](CN(C)CC2CC2)[C@H](C)CN([C@H](C)CO)C(=O)c2cc(NC(=O)c3ccccc3)ccc2O1`, inactive: 1.

Take `Cn1cnc(CCNC(=O)C[C@@H]2CC[C@H]3[C@@H](COC[C@H](O)CN3C(=O)Nc3ccc(Cl)cc3)O2)c1`: the relative growth is inactive: 0.964. As for `COc1ccc(S(=O)(=O)Nc2ccc3c(c2)C(=O)N([C@H](C)CO)C[C@H](C)[C@H](CN(C)C(=O)Nc2ccc4c(c2)OCO4)OCCCC[C@H](C)O3)cc1`, the figure is inactive: 1.04; as for `COc1ccccc1CNC(=O)C[C@H]1CC[C@@H]2[C@H](COC[C@H](O)CN2C(=O)Nc2ccc(Cl)cc2)O1`, inactive: 0.925; as for `C[C@@H]1CN([C@H](C)CO)S(=O)(=O)c2ccc(C#Cc3cccc(F)c3)cc2O[C@H]1CN(C)S(=O)(=O)c1ccccc1F`, inactive: 0.947. The result for `C[C@@H]1CN([C@@H](C)CO)C(=O)c2cc(NC(=O)C3CCCCC3)ccc2O[C@@H](C)CCCCO[C@H]1CN(C)C(=O)CCC(F)(F)F` reads inactive: 1; that for `C[C@@H]1CCCCO[C@@H](CN(C)CC2CC2)[C@H](C)CN([C@H](C)CO)C(=O)c2cc(NC(=O)Nc3ccc(F)cc3)ccc2O1`, inactive: 1.02; that for `CC(C)NC(=O)Nc1ccc2c(c1)C(=O)N([C@@H](C)CO)C[C@H](C)[C@@H](CN(C)S(C)(=O)=O)OCCCC[C@@H](C)O2`, inactive: 1.01. The result for `C[C@H]1CN([C@@H](C)CO)S(=O)(=O)c2ccc(C#Cc3cccnc3)cc2O[C@@H]1CN(C)CC1CCOCC1` reads inactive: 0.976; that for `O=C(C[C@@H]1CC[C@H](NS(=O)(=O)c2ccccc2)[C@@H](CO)O1)NCc1ccncn1`, inactive: 1.01; that for `C[C@@H]1CN([C@@H](C)CO)C(=O)Cc2cc(NC(=O)CCCCCC(=O)Nc3ccccc3N)ccc2O[C@H]1CN(C)C(=O)Nc1ccccc1`, inactive: 0.991. Regarding `C[C@H](CO)N1C[C@H](C)[C@H](CN(C)C(=O)Cc2ccccc2)OCCCC[C@H](C)Oc2ccc(NS(=O)(=O)c3cccs3)cc2C1=O`, the relative growth is inactive: 0.989.

`CC=Cc1ccc2n(c1=O)C[C@@H]1[C@@H](CO)[C@H](C(=O)NCCc3cn(C)cn3)N(C(=O)C3CC3)[C@H]21`: the relative growth was inactive: 1.01. The result for `C[C@H](CO)N1C[C@H](C)[C@@H](CN(C)S(=O)(=O)c2ccccc2)Oc2ccc(NC(=O)Cc3ccccc3)cc2C1=O` reads inactive: 0.964; that for `COc1ccc(C(=O)Oc2ccc(CCn3c(NC(=O)c4ccc(C(F)(F)F)cc4)nc4cc(C(=O)O)ccc43)cc2)cc1`, inactive: 1. The result for `C[C@@H]1CN([C@H](C)CO)C(=O)c2cc(NC(=O)c3ccncc3)ccc2O[C@H]1CN(C)Cc1ccc(-c2ccccc2)cc1` reads inactive: 0.992. Turning to `COc1ccc([Si](C)(C)[C@H]2[C@H](CCn3cc(CCO)nn3)O[C@@]3(C(=O)N(C)c4ccccc43)[C@@H]2C)cc1`, the relative growth is inactive: 0.991. The result for `C[C@@H]1CN([C@@H](C)CO)C(=O)c2cc(NC(=O)NC3CCCCC3)ccc2O[C@@H]1CN(C)Cc1ccc(C(=O)Nc2ccccc2N)cc1` reads inactive: 0.971.
